# PubChem BioAssay AID1240 (Sanford-Burnham Center for Chemical Genomics, 2008)
# Hit rate of the full screen: of about 50,000 compounds, about 800 (1.6%) showed an effect of 50% or more. Some of the results follow.
# Molecular target: Bcl-2-like protein 10 (Homo sapiens) (UniProt Q9HD36)
# Test: Phenotype converters, Bcl-B/TR3 peptide binding displacement, primary biochemical FP (AID 1240);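 also: 0% = Bcl-B with tracer peptide and DMSO and 100% = tracer peptide lacking Bcl-B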
# Conditions: GST-Bcl-B / FITC-TR3 peptide fluorescence polarization; stronger effect = higher value; compound at 3.75 mg/L
# UniProt Q9HD36, sequence (Q9HD36 whole entry, looked up): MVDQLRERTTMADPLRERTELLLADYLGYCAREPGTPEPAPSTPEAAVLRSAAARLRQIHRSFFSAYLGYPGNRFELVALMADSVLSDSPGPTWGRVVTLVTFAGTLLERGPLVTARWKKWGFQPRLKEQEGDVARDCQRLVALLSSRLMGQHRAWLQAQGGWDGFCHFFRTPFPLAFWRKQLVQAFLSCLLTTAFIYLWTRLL
row,SMILES,displacement
1,COc1ccc(N2C(=O)NC(=O)/C(=C\c3ccc(Oc4ccc([N+](=O)[O-])cn4)cc3)C2=O)cc1,4.2%
2,O=C(NC(=S)Nc1ccc(N2CCCCC2)c(Cl)c1)c1ccco1,-7.1%
3,Cc1ccccc1C(=O)Nc1ccc(NC(=O)c2cccc(Br)c2)cc1,1.6%
4,O=C(/C=C/c1cccc([N+](=O)[O-])c1)N1CCC(Cc2ccccc2)CC1,5%
5,O=C(/C=C/c1ccccc1)NC(=S)Nc1cccc(NC(=O)c2ccco2)c1,8.2%
6,O=C1c2ccccc2C(=O)c2c1c(O)c1ccccc1c2Nc1ccccc1,-0.5%
7,C#CCOC(=O)C(C=C=C)(C(F)(F)F)C(F)(F)F,7%
8,COc1ccc(C2CC(=O)C3=C(C2)Nc2ccccc2NC3c2ccccc2Br)cc1OC (stereo not given),-27.1%
9,CS(=O)(=O)N(Cc1ccccc1)c1ccc(C(=O)Nc2ccc(Oc3ccccc3)cc2)cc1,3.7%
10,COc1ccc(OC)c(S(=O)(=O)n2c(C)nc3ccccc32)c1,14.9%
11,CCOc1ccc(NC(=O)C2=C(C)NC(=O)NC2c2ccc(O)c(OC)c2)cc1 (stereo not given),17.9%
12,CN(C)CC(=O)N1c2ccccc2CCc2ccc(NC(N)=O)cc21,8.4%
13,Cc1ccccc1N1C(=O)NC(=O)/C(=C\c2cc(C)n(-c3cccnc3)c2C)C1=O,2.3%
14,CCOC(=O)C(CC(C)C)NC(=O)C(Cc1ccccc1)N1C(=O)c2ccccc2C1=O (stereo not given),13.8%
15,CCCOC(=O)c1cccc(NC(=O)COc2ccc(C)cc2Br)c1,12.3%
16,Cc1cccc(N2C(=O)C3C(C2=O)N2C(c4ccco4)C4C(=O)N(c5cccc(C)c5)C(=O)C4N2C3c2ccco2)c1 (stereo not given),-10.9%
17,COC(=O)c1cc(-c2ccc(/C=C3/N=C(c4ccccc4)OC3=O)o2)ccc1Cl,23.7%
18,Cc1[nH]n(-c2ccccc2)c(=O)c1C=Nc1ccc(Cl)cc1,1.9%
19,C=C(C)COc1ccccc1/C=C1\N=C(c2ccc(F)cc2)OC1=O,1.9%
20,CCOC(=O)CCC(=O)Nc1cc(-c2ccc(F)cc2)[nH]n1,6.2%
21,COc1ccccc1/C=C1\SC(N2CCCCCC2)=NC1=O,24.8%
22,O=C1c2cccnc2C(=O)N1c1cccc(-c2nc3ccccc3o2)c1,23.6%
23,CCOc1cc(OCC)cc(C(=O)NCc2ccccc2)c1,-9.5%
24,CCCN(C=O)/N=C/c1ccc([N+](=O)[O-])cc1O,-17%
25,Cn1c(=O)c2c(nc(N3CCCCC3)n2C)n(C)c1=O,3.8%
26,C=CCNC(=O)CN(c1ccc(C(C)C)cc1)S(=O)(=O)c1ccccc1,3.4%
27,CCCOc1ccc(Cc2c(O)[nH]c(=S)[nH]c2=O)cc1C,-11.6%
28,O=C1C(=O)N(CCCn2ccnc2)C(c2ccccc2Cl)/C1=C(\O)c1ccc(Cl)cc1 (stereo not given),2.5%

row,SMILES,displacement
1,C#CCOc1ccc(/C=C2\C(=O)NC(=O)N(c3ccc(C)cc3)C2=O)cc1Br,0.6%
2,O=C1NC(=O)/C(=C\c2cccc([N+](=O)[O-])c2)S1,11.6%
3,CC(=O)Nc1ccc(Br)cc1C(NCC(=O)NN)c1ccccc1 (stereo not given),-6%
4,Oc1c(Br)cc(Br)cc1/C=N/Nc1nc(N2CCOCC2)nc(N2CCOCC2)n1,10.4%
5,COc1ccc(/C=C/C(=O)N2CCOCC2)cc1Br,13.7%
6,COc1ccc(CN2CCN(C3CCCC3)CC2)cc1OCc1ccccc1,-9.7%
7,CSc1ccc(C(C2=C(O)CC(C)(C)CC2=O)C2C(=O)CC(C)(C)CC2=O)cc1 (stereo not given),0.6%
8,COc1cc(/C=C2\SC(=S)N(c3ccc(C)cc3C)C2=O)cc(Br)c1O,0.9%
9,CSc1ccc(C2CC(=O)Nc3c2cc(Br)c2ccccc32)cc1 (stereo not given),-6.4%
10,C/C(NC(=O)c1ccccc1)=C1/C(=O)CC2C1C2(C)C (stereo not given),8.5%
11,CCn1c2ccccc2c2cc(NC(=O)c3ccccc3Cl)ccc21,5%
12,O=C1CC(c2ccccc2)CC2=C1C(c1ccc(F)cc1)Nc1ccccc1N2 (stereo not given),2.3%
13,CCOC(=O)C1=C(C)N=c2s/c(=C\c3cc4c(cc3Cl)OCO4)c(=O)n2C1c1cccs1 (stereo not given),-8.9%
14,COc1ccc(CC(=S)N2CCOCC2)cc1OC,-10.9%
15,CC(=O)c1ccc2c3c([nH]c2c1)CCCC3,39.2%
16,C=C(C)Cn1c(COc2cccc(C)c2)n[nH]c1=S,2.8%
17,CN(C)c1ccc(N2C(=O)c3ccccc3C2=O)cc1,-13.5%
18,CC(C)c1cc(N=NC(=N)N)cc(C(C)C)c1O,-37%
19,c1ccc(COc2cccc(OCc3ccccc3)c2)cc1,-1.7%
20,Ic1ccc(-c2nc(-c3ccccn3)no2)cc1,2.2%
21,Cc1cc(=O)[nH]c(SCCOc2ccc(Cl)cc2)n1,11.1%
22,CN(C)CCC(=O)c1cccc([N+](=O)[O-])c1,-11.5%
23,Cc1ccc2nc(NC(=O)C3CCCCC3C(=O)O)sc2c1 (stereo not given),-11%
24,COc1cc(NC(=O)CCCOc2ccc(Cl)cc2Cl)c2ncccc2c1,-3.6%
25,Cc1ccc(-n2c(O)c(/C=N/n3cnnc3)c3ccccc3c2=O)cc1,5.8%
26,COc1ccc(C(CC(=O)c2ccc(C)cc2)Nc2ccc(Cl)cc2)cc1OC (stereo not given),12.7%
27,O=C(O)C(Cc1ccccc1)N1C(=O)/C(=C/c2cccc3ccccc23)SC1=S (stereo not given),0.4%
